# Test results as given in PubChem BioAssay AID938 (National Center for Advancing Translational Sciences (NCATS), 2007).
# Screen size: about 73,000 compounds; about 1,800 (2.5%) were called active. Inconclusive results, whose numbers are uncertain, are shown with a selection of clear calls. Calls follow the shape of the dose curve; as a rule, active = well fitted activation curve with a large enough effect; inconclusive = small, poorly fitted or top-dose-only effect; inactive = no such curve, though single readings can be large or run the other way. No potency is given beside an inconclusive call; the fits are too rough.
# Assay: qHTS Assay for Agonists of the Thyroid Stimulating Hormone Receptor: Activators of Intracellular cAMP Concentrations in Parental HEK 293; also: nearly all actives have a fitted effect of over 55% in size; as to activation: % of control where 0% means no effect
# Conditions: parental HEK293 CNG cAMP sensor, membrane potential fluorescence; activation: at 57.1 µM (top of the series) unless noted
# In short: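 Parental HEK 293 cells stably expressing a modified CNG channel (no TSHR) report cAMP rise as membrane depolarization. Membrane potential dye with 100 uM RO 20-1724 was loaded for 60 min at room temperature, then compound added for 30 min; fluorescence read at 590 nm.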
# Potency is read from the fitted curve at half-maximal effect; tags tell the direction and shape of the fitted curve.
Structure (SMILES),Potency,activation
CCN(CC)S(=O)(=O)c1ccc(NC(=O)c2ccc(NS(C)(=O)=O)cc2)cc1,"inconclusive [activator, single point]",–
CCN(C(=O)CN1CCN(C)CC1)c1cccc2ccccc12,"inconclusive [activator, single point]",–
CN(C)c1ccc(/C=C2/C(=O)Nc3ccccc32)cc1,inactive,–
Cc1ccc(F)cc1NC(=O)c1c(-c2ccccc2)noc1C,"inconclusive [activator, single point]",–
CC(Oc1ccccc1)C(=O)NC1CC(C)(C)NC(C)(C)C1 (configuration not stated),"inconclusive [activator, single point]",–
COc1ccc(-n2cnnc2SCC(=O)c2cc(C)n(Cc3cccs3)c2C)cc1,active: 25.1 µM,–
O=C(NCc1ccco1)c1cnn2c(C(F)(F)F)cc(-c3ccccc3)nc12,"inconclusive [activator, partial curve]",–
Brc1ccc(CSc2nnc(Cc3c[nH]c4ccccc34)o2)cc1,"inconclusive [activator, single point]",–
Nn1c(-c2ccccn2)nnc1-c1ccccn1,"inconclusive [activator, single point]",–
COc1ccc(CC(=O)Nc2oc(-c3ccccc3)c(-c3ccccc3)c2C#N)cc1OC,"inconclusive [activator, full curve, poor fit]",–
COC(=O)C(C)Sc1nnc(-c2ccncc2)o1 (configuration not stated),"inconclusive [activator, single point]",–
COc1cc(NS(C)(=O)=O)ccc1Nc1c2ccccc2nc2ccccc12,"inconclusive [activator, single point]",–
CCC(C(=O)NC1CCCC1)N(Cc1ccc2c(c1)OCO2)C(=O)c1snc(C(N)=O)c1N (configuration not stated),"inconclusive [activator, single point]",–
CC(C)(C)OC(=O)N1CCC[C@H]1c1nnc(SC/C=C/c2ccccc2)o1,"inconclusive [activator, single point]",–
N#Cc1nc(Cc2cccc3ccccc23)oc1NCCCn1ccnc1,–,inactive: -12.1%
O=C(c1ccco1)N1CCN(C(c2ccc(F)cc2)c2nnnn2Cc2cccs2)CC1 (configuration not stated),"inconclusive [activator, single point]",–
CC(C)Cn1cnc2c(Sc3c([N+](=O)[O-])ncn3C)nc(N)nc21,–,inactive: -4.26% [at 11.4 µM]
CCN(CC)S(=O)(=O)c1ccc(Cl)c(C(=O)OC)c1,"inconclusive [activator, single point]",–
CCOC(=O)CSC1=C(C#N)C(c2ccccc2OCC)C(C#N)C(=O)N1 (configuration not stated),"inconclusive [activator, partial curve]",–
O=C(CSc1nc2ccccc2n1CC(=O)NCc1ccccc1)NCc1ccco1,"inconclusive [activator, full curve]",–
O=C(c1cnn2c(C(F)(F)F)cc(-c3ccco3)nc12)N1CCCc2ccccc21,"inconclusive [activator, partial curve]",–
CS(=O)(=O)N1CCC2(CCCN(C(c3ccccc3)c3ccccc3)C2)CC1,"inconclusive [activator, full curve]",–
CCN1C(=O)c2cccc3c(S(=O)(=O)Nc4nc(C)cs4)ccc1c23,–,inactive: 5.17%
Cc1ccc2c(CC(=O)NCc3ccc4c(c3)OCO4)coc2c1,"inconclusive [activator, single point]",–

Structure (SMILES),Potency,activation
COc1ccc(NC(=O)C(F)(OC)C(F)(F)F)c(OC)c1 (configuration not stated),"inconclusive [activator, single point]",–
COC(=O)c1ccccc1NC(=O)CN1CCC(n2nnc3cc(F)ccc32)CC1,active: 25.1 µM,–
CCCCCn1c(SCCC(C)C)nc2c1c(=O)[nH]c(=O)n2C,"inconclusive [activator, single point]",–
CCOC(=O)c1cn2c3c(c(F)c(F)c(F)c3c1=O)SC(N1CCCC1)=N2,"inconclusive [activator, full curve]",–
O=C(CSc1nc2ccccc2[nH]1)NCCN1CCCCC1,"inconclusive [activator, single point]",–
CCN(CCCNc1ncnc2nc[nH]c12)c1cccc(C)c1,"inconclusive [activator, single point]",–
Cc1ccccc1S(=O)(=O)Cc1ccc(C(=O)NCCN2CCN(Cc3ccccc3)CC2)o1,"inconclusive [activator, single point]",–
O=C(Nc1ccc(N2CCOCC2)c(Cl)c1)c1ccco1,–,inactive: 2.23%
CCOC(=O)c1[nH]c2c(c1C)C(=O)CC(c1ccc(OC)c(OC)c1)C2 (configuration not stated),–,inactive: 3.15%
O=C(O)c1cc(S(=O)(=O)Nc2cccc(Cl)c2)ccc1O,"inconclusive [activator, single point]",–
CCN(CC)c1nc(Nc2ccccc2)nc(Oc2ccc(=O)n(C)n2)n1,"inconclusive [activator, single point]",–
O=C(CCN1C(=O)CSC1=O)Nc1ccccc1,"inconclusive [activator, single point]",–
Cc1nn(CC(=O)Nc2ccc(C(=O)N3CCCC3)cc2)c(=O)c2ccccc12,"inconclusive [activator, single point]",–
CSc1oc(-c2ccc(F)cc2)nc1S(=O)(=O)c1ccccc1,"inconclusive [activator, partial curve]",–
Cn1cnc2c(N3CCCCC3)nccc21,"inconclusive [activator, partial curve]",–
CCC(C)(C)n1nnnc1C(C(C)C)N1CCSCC1 (configuration not stated),active: 6.31 µM,–
CC(C)(C)c1ccc(OCC2CO2)cc1 (configuration not stated),–,inactive: 21.4%
COC(=O)c1ccc(O)c(Sc2cc(C(=O)OC)ccc2O)c1,–,inactive: 10.1%
N[C@@H](Cc1ccccc1)c1nnc(SCc2ccccc2F)o1,"inconclusive [activator, partial curve]",–
CN1CCN(c2ncc3ncc(=O)n(-c4ccccc4)c3n2)CC1,"inconclusive [activator, partial curve]",–
CCc1ccc(NC(=O)CNS(=O)(=O)c2c(C)noc2C)cc1,"inconclusive [activator, single point]",–
COc1ccc(CNc2cc(-c3cccc(C#N)c3)ncn2)c(OC)c1,"inconclusive [activator, partial curve, poor fit]",–
CCc1cc(C=NC2CCCCC2)c(O)s1,–,inactive: 27.1%
Cc1noc(NS(=O)(=O)c2ccc(NC(=O)C34CCC(CC3)C4)cc2)c1C,"inconclusive [activator, single point]",–

Structure (SMILES),Potency,activation
Cc1nnc(NC(=O)c2ccccc2Br)s1,–,inactive: -2.11%
O=C(CCNS(=O)(=O)c1cccc2nsnc12)NCc1cccs1,–,inactive: 5.97%
COCCN(CCOC)S(=O)(=O)c1ccc(C(=O)Nc2nnc(C)o2)cc1,–,inactive: 7.07%
Cc1cc(C)c(NC(=O)CN2CCN3CCCC3C2)c(C)c1 (configuration not stated),"inconclusive [activator, partial curve]",–
CCNc1ccc(S(=O)(=O)C(F)(F)F)cc1NC(=O)C12CCC(CC1)C2,active: 15.8 µM,–
O=S(=O)(Nc1cccc2ncccc12)c1cccs1,"inconclusive [activator, single point]",–
CCCCC(=O)NCCc1cc2c(OC)ccc(OC)c2[nH]c1=O,–,inactive: 1.18%
CC(=O)C1=C(O)C(=O)N(C)C1c1ccccc1F (configuration not stated),"inconclusive [activator, single point]",–
CCCc1nc2c(sc3nc4c(cc32)COC(C)(C)C4)c(=O)n1Cc1ccco1,"inconclusive [activator, partial curve]",–
N#CC1=C(N)Oc2n[nH]c(-c3ccccc3)c2C1c1cccnc1 (configuration not stated),–,inactive: 6.37%
O=C(Nc1ccc2ccccc2c1)N1CCN(c2ncccc2C(F)(F)F)CC1,–,inactive: 16.6%
COc1cccc(Cn2c(=O)c(C)nc3cnc(OCc4ccccc4)nc32)c1,active: 15.8 µM,–
COc1ccccc1C(=O)NCCn1cc(SCC(=O)NCc2ccco2)c2ccccc21,"inconclusive [activator, partial curve]",–
CC1CN(c2oc(COc3ccc(Cl)cc3Cl)nc2C#N)CC(C)O1 (configuration not stated),"inconclusive [activator, full curve]",–
CCOC(=O)N1CCN(S(=O)(=O)c2cccc3nsnc23)CC1,–,inactive: 14%
CCn1c(C(=O)NCCCc2ccccc2)cc2sccc21,–,inactive: -59.4%
Cc1oc(C)c2c(=O)ccc3c(c12)OC(N)=C(C#N)C3c1ccccc1 (configuration not stated),–,inactive: 6.9%
COCCn1c(=O)c(-c2cccs2)nc2cnc(Oc3cccc(Cl)c3)nc21,"inconclusive [activator, single point]",–
Cn1c(=NC(=O)CN2C(=O)C3CC=CCC3C2=O)sc2ccccc21 (configuration not stated),"inconclusive [activator, single point]",–
CC(=O)OCC1OC(C#Cc2ccc(C(C)(C)C)cc2)C=CC1OC(C)=O (configuration not stated),–,inactive: 5.61% [at 11.4 µM]
CCCc1ccc(Oc2c(-c3ccc(O)c(C)c3O)n[nH]c2C)cc1,"inconclusive [activator, partial curve]",–
Cc1cccc(C)c1NC(=O)CSc1nnc(-c2ccoc2C)n1CCc1ccccc1,"inconclusive [activator, partial curve]",–
COCCCNC(=O)c1ccc2c(=O)n(C3CCCC3)c(=S)[nH]c2c1,"inconclusive [activator, full curve, poor fit]",–
CC1CCC2(CC1)NC(=O)N(Cc1nc(-c3ccccc3)no1)C2=O (configuration not stated),–,inactive: 28.1%
